Measured values from PubChem BioAssay AID1159614 (National Center for Advancing Translational Sciences (NCATS), 2016).
Out of some 45,000 compounds screened, about 65 (0.1%) were called active. Calls follow the shape of the dose curve; as a rule, active = well fitted activation curve with a large enough effect; inconclusive = small, poorly fitted or top-dose-only effect; inactive = no such curve, though single readings can be large or run the other way. The list shows a part of the results.

Each molecule was assayed against Galactocerebrosidase (Homo sapiens) (UniProt P54803) (assay: A Novel Cell-Based Assay to Identify Small Molecules for B -Galactocerebrosidase). Settings: 145M-Twi-hGALC-G270D cells (Twitcher mouse brain line with human GALC G270D), HMU-beta-Gal fluorescence, 48 h; series mostly up to 57.5 µM; activation: at the top concentration.
UniProt P54803, sequence (P54803 whole entry, looked up): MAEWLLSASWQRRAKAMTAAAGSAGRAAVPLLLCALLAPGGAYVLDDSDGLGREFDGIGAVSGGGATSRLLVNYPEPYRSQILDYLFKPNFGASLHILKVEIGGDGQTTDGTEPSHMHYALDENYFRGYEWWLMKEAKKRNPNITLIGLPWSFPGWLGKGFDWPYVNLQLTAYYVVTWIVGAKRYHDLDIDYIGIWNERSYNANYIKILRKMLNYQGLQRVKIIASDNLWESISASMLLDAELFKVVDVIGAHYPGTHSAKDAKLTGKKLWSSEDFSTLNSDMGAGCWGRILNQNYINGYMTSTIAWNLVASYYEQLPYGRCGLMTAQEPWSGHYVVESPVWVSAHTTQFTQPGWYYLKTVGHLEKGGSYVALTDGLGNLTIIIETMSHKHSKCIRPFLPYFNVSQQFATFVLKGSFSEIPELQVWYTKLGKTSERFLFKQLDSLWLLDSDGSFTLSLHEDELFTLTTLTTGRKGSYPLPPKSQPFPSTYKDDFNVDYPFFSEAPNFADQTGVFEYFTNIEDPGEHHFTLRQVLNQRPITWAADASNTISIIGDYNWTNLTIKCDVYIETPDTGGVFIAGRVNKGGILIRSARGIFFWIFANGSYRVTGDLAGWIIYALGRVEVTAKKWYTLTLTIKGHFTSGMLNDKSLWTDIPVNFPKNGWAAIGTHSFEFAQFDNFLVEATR
In short: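 Mutant human GALC (G270D), stably expressed in a Twitcher mouse brain cell line lacking endogenous GALC, is measured in live-treated cells via 6-hexadecanoylamino-4-methylumbelliferyl-β-galactoside hydrolysis (0.1 mM final, pH 5.2) with fluorescent detection.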
Also: nearly all actives have a fitted effect of over 65% in size.
For activation in this document: 0% is about no effect.
Potency is read from the fitted curve at half-maximal effect.

activation, inactive:
Cc1nc2cc(-c3ccccc3)nn2c(C)c1CCC(=O)NCCc1ccccc1 -4.12%
Cc1oc2ncnc(N3CCCCC3)c2c1C(=O)Nc1cccc(Cl)c1C 6.95%
CCc1ccccc1NS(=O)(=O)c1ccc(-c2coc(C)n2)cc1 -33.1%
CCC1CCCCN1S(=O)(=O)c1ccc(NC(=O)c2nc(SC)ncc2Cl)cc1 (stereo unspecified) -17.7%
Cc1cccc(CCNC(=O)c2ccc3c(c2)nc2n3CCOC2)c1 -29.3%
COC(=O)c1ccc(NC(=O)c2cc(S(=O)(=O)N3CCC(C)CC3)cn2C)cc1 -31.5%
CCOC(=O)c1ccc(Nc2nc(N)c3cc(OC)c(OC)cc3n2)cc1 -3.22%
Cc1ccc2[nH]c(CSc3nnc(NC(=O)COc4ccccc4C)s3)cc(=O)c2c1 -2.09%
COc1ccc(Nc2cc(C(=O)NCCCN(C)c3ccccc3)c3ccccc3n2)c(OC)c1 -17.5%
COc1ccc(CC(=O)Nc2ccc(-c3nc4ccccc4s3)cc2Cl)cc1OC 9.76%
CCCOCc1cc(CN2CCN(c3cccc(Cl)c3)CC2)c(O)c2ncccc12 -10.6%
Cc1cccc(C)c1NC(=O)c1c(C)oc2c1C1=NCCN1C=N2 -12.2%
CN1CCC[C@@H]1Cc1c[nH]c2ccc(CCS(=O)(=O)c3ccccc3)cc12 -8.75%
Cc1nn(C)c2c1c(-c1ccccc1)cc(=O)n2C(C)C(=O)NCCc1ccc(Cl)cc1 (stereo unspecified) -13%
COc1ccc(C(=O)c2oc3ccccc3c2NC(=O)COc2cccc(C)c2)cc1 -14.1%
CCN(CC)CCNC(=O)c1ccc2c(c1)NC(=O)C(CS(=O)(=O)Cc1ccc(F)cc1Cl)N2 (stereo unspecified) 22.5%
CCn1cc(C(=O)NCCCN2CCC(C)CC2)c(=O)c2cc(S(=O)(=O)N(C)C3CCCCC3)ccc21 -7.96%
COc1ccc(-c2ccc3c(N)c(C(=O)Nc4ccc(C)cc4C)sc3n2)cc1OC -10.1%
CC(C)c1nc2ccc(C(=O)NCc3ccc(F)cc3)cc2o1 -11.4%
COc1ccc(S(=O)(=O)NCC(c2ccco2)N2CCN(c3ccccc3F)CC2)cc1OC (stereo unspecified) -13.9%
COc1ccc(-n2c(SCC(=O)Nc3cc(C)cc(C)c3)nc3c(oc4ccccc43)c2=O)cc1 -12.2%
COc1ccccc1N1CCN(C(=O)c2nc(-c3ccc(C)cc3)n3c2CCCCC3)CC1 -12.5%
CCOc1ccc(-c2cc(NC(=O)c3c(F)cccc3F)c(C(=O)OC)s2)cc1 -17.4%
CC1CCN(C(=O)c2ccccc2NC(=O)c2nsc3ccccc23)CC1 -3.98%
CCc1cccc(NC(=O)C2CCCN2S(=O)(=O)c2ccc3c(c2)n(C)c(=O)c(=O)n3C)c1 (stereo unspecified) -10.9%
Cc1cc(C)c(/C=C/c2onc(C)c2S(=O)(=O)N2CCC(C(=O)NCC(C)c3ccccc3)CC2)c(C)c1 (stereo unspecified) -27.4%
CC(C)[N+](C)(CCOC(=O)C1c2ccccc2Oc2ccccc21)C(C)C -8.2%
Cc1cc(NC(=O)CC(C)C)cc(-c2nc3ncccc3o2)c1O 3.44%
Cc1ccc(Cl)cc1NC(=O)c1cnn2c(C(F)F)cc(-c3ccccc3)nc12 -9.85%
COc1ccc(NC(=O)c2cc(S(=O)(=O)N3CCCCC3)c[nH]2)cc1Cl -0.187%
COC(=O)c1c(NC(=O)C(C)Oc2ccc(Cl)cc2Cl)sc2c1CCCC2 (stereo unspecified) -0.106%
CCOc1ccc2c(c1)[C@@H]1C=CC[C@@H]1[C@H](c1ccccc1Cl)N2 -13.4%
Cc1ccc(CCNC(=O)CN2C(=O)COc3ccc(S(=O)(=O)N4CCCCC4)cc32)cc1 -13.9%
Cc1ccc(Nc2nnc(-c3ccc(C)c(S(=O)(=O)N4CCCCC4)c3)c3ccccc23)cc1 -5.21%
Cc1cccc(-c2nc3c(cnn3-c3ccccc3)c(=O)n2-c2cccc(Cl)c2)c1 4.68%
O=C(NCCc1ccccc1)c1ccc2c(c1)N(Cc1ccccc1)C(=O)c1ccccc1S2=O (stereo unspecified) -13.1%
Cc1ccc(CNC(C)c2ccccc2)s1 (stereo unspecified) -8%
COc1ccc(OC)c(NCc2cccn2-c2nnc(N3CCC(C)CC3)s2)c1 -19.5%
Cn1cnc2c(=O)oc3ccc(S(=O)(=O)N4CCN(c5ccccc5)CC4)cc3c21 0.292%
CC(C)(C)OC(=O)N1CCC(c2c(C(=O)Nc3cccc(C(F)(F)F)c3)cnn2-c2ccc(F)cc2F)CC1 0.698%
Cc1cc(C)cc(NC(=O)CSc2nnc(COc3ccccc3Cl)o2)c1 -13.8%
Cc1ccc(C)c(NC(=O)CCCN2C(=O)COc3ccc(C)cc32)c1 12.2%
O=C1CN(C(=O)c2ccc(Cl)cc2Cl)C(c2ccc(F)cc2)c2cc(F)ccc2N1 (stereo unspecified) -8.47%
Cc1cc(OCC(=O)Nc2cnn(CCCC(=O)O)c2)ccc1Cl -11.1%
CN(C)c1ccc(C(CNC(=O)Cc2ccc(Cl)cc2)N2CCOCC2)cc1 (stereo unspecified) -13.1%
CCOC(=O)C1CCN(C(=O)CSc2n[nH]c(-c3ccccc3Cl)n2)CC1 -4.83%
CC(=O)Nc1cc(C(=O)NCc2ccc(F)cc2)ccc1Sc1ccc(C)cc1 -2.99%
COc1ccc(C)cc1NC(=O)c1cc2c(s1)-c1ccccc1SC2 -5.21%
CCOC(=O)CC(NC(=O)Cn1nnc(-c2ccc(C(F)(F)F)cc2)n1)c1ccccc1Cl (stereo unspecified) -16.2%
Cc1nn(-c2ccccc2)c(-n2cccc2)c1C(=O)NCc1ccccc1Cl -1.64%
CC1CCN(S(=O)(=O)c2ccc3ncn(CC(=O)Nc4ccccc4C(F)(F)F)c(=O)c3c2)CC1 3.15%
Cc1ccc(NC(=O)Cn2c(=O)n(-c3ccc(C)cc3)c(=O)c3ccc(C(=O)NCc4ccccc4Cl)cc32)cc1 -9.75%
COc1ccc(CCNC(=O)Cc2c(C)c3c(cc(C)c4c(C)c(C)oc43)oc2=O)cc1OC -10.7%
Cc1ccc(S(=O)(=O)c2nc(-c3ccco3)oc2SC(C)C)cc1 -14.8%
CCOc1ccc(CNC(=O)CN2C(=O)CCn3nc(-c4cn(C)c5ccccc45)cc32)cc1OC -8.33%
CC(C)OC(=O)c1cc2c(OCC(O)CNC(C)(C)C)cccc2[nH]1 (stereo unspecified) -13.8%
CCCn1c2ccccc2c2cnn(CC(=O)Nc3cccc(C(=O)OCC)c3)c(=O)c21 -3.91%
O=C(NCc1cccs1)c1nn(-c2ccccc2)nc1CO -10.2%
CCOc1ccc(NC(=O)CSc2cc(C)c3ccccc3n2)cc1 -6.18%
Cn1c(=O)c2c(nc(SCC(=O)Nc3ccc(F)cc3F)n2Cc2ccccc2)n(C)c1=O 4.26%

Potency, active:
CCN(CC)S(=O)(=O)c1ccc2c(c1)c(=O)c(C(=O)N(C)Cc1ccccc1)cn2C 25.1 µM
